# Laboratory results from publication PMC4336329 (PLoS ONE, 2015).
# The campaign covered roughly 310,000 compounds. About 14,000 (4.5%) showed an effect of 50% or more. The effect is printed as a negative number. The list shows a part of the results.
# Biological target: human ether-à-go-go-related gene (hERG) potassium channel (human, UniProt Q12809)
# Assay: primary screen, population patch clamp on CHO cells stably expressing hERG
# 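Also: peak tail current of the secondary pulse compared with the same well before compound.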
# human ether-à-go-go-related gene (hERG) potassium channel, sequence (Q12809 whole entry, looked up): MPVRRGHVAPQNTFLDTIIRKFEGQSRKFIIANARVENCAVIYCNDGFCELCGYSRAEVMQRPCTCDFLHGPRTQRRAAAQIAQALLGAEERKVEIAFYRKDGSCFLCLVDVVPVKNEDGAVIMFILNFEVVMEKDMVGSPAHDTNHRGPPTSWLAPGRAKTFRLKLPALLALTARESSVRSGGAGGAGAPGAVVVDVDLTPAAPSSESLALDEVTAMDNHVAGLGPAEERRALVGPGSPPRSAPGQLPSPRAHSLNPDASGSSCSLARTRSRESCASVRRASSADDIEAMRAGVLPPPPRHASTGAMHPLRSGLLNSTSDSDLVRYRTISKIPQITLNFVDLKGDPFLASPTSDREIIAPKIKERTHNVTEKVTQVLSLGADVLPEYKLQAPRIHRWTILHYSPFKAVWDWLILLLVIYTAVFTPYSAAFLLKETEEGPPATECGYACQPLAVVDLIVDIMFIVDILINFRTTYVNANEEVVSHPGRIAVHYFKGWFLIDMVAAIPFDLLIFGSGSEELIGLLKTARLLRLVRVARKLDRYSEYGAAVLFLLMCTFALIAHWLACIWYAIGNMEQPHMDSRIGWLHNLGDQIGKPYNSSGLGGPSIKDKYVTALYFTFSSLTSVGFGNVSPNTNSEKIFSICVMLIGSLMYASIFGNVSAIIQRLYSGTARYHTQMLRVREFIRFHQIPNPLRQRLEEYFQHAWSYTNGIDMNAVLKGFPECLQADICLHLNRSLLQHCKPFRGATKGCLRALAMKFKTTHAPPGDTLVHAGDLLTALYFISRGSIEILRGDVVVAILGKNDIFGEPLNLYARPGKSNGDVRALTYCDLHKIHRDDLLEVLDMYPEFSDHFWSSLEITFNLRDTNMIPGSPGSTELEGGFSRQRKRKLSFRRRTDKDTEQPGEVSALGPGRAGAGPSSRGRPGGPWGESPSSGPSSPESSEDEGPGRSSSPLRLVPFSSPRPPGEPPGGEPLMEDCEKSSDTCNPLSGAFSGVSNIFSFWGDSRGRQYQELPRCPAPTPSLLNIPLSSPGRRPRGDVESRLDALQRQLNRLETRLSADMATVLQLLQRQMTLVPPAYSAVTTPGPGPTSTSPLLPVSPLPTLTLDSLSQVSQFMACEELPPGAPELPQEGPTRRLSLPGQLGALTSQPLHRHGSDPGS
row,SMILES,"hERG current change (%, negative = inhibition) at 10uM"
1,CCOc1ccc(-c2nnc(NC(=O)Cc3ccc(OC)cc3)o2)cc1,17.9%
2,Fc1cccc(Cl)c1/C=N/Nc1ccccn1,15.2%
3,CN(CC(=O)Nc1ccccc1Cl)C(=O)COC(=O)CNC(=O)c1ccc(Br)o1,-61.4%
4,CCc1ccc(OCC(=O)NNC(=O)C2CCC2)cc1,-44.9%
5,COCCN(C(=O)c1ccccc1F)c1c(N)n(Cc2ccccc2)c(=O)[nH]c1=O,27.1%
6,COc1ccc(OCC(=O)Nc2ccc(N3CCN(C(=O)c4ccccc4)CC3)c(Cl)c2)cc1,-19.4%
7,COc1cc(CNCc2ccccc2)ccc1OCC(O)c1ccccc1.O=C(O)C(=O)O (centres unmarked),-24.9%
8,CCOc1ccccc1NC(=O)Nc1cccc(C(C)=O)c1,-36.3%
9,O=C(CNC(=O)c1ccccc1)Nc1ccsc1C(=O)O,8.57%
10,Br.CCOC(=O)CN1C2=NCCCN2c2ccccc21,2.95%
11,NC(=O)C1CCN(C(=O)c2cccc(CN3C(=O)c4ccccc4C3=O)c2)CC1,-4.24%
12,C[C@H](NC(=O)c1cc2cc(Cl)ccc2n1C)C(=O)N1CCC(C(=O)O)CC1,14.5%
13,O=C(COC(=O)c1cccnc1Nc1cccc(C(F)(F)F)c1)NCc1ccc2c(c1)OCO2,18.4%
14,CS(=O)(=O)N1CCC(C(=O)Nc2ccccc2)CC1,0.0372%
15,CCCc1c(C(=O)N/N=C(\C)c2ccc(O)cc2)nnn1-c1nonc1N,3.04%
16,CSc1ccc(S(=O)(=O)NCC(=O)OCC(=O)NC2(C#N)CCCCC2)cc1[N+](=O)[O-],0.00068%
17,COc1ccc(-n2nc3c(c2NC(=O)COc2cccc(OC)c2)CS(=O)(=O)C3)cc1,-29.5%
18,COc1cc(OC)c(OC)cc1CN1CCN(Cc2ccco2)CC1.O=C(O)C(=O)O,18.1%
19,C=CCN(c1ccccc1C(=O)O)S(=O)(=O)/C=C/c1ccccc1,23.5%

row,SMILES,"hERG current change (%, negative = inhibition) at 10uM"
1,Cc1cc(C)c(NC(=O)CSc2nnc(CN3CCOCC3)n2C)c(C)c1,13.5%
2,O=C(CNc1ccccc1)N/N=C/c1ccc2c(c1)OCO2,13.1%
3,Nc1c(Cl)nc(-c2ccccc2)nc1Cl,17.2%
4,Cn1c(NN)nc2sc3c(c2c1=O)CC(C)(C)OC3,9.89%
5,CCOC(=O)CSc1ncc(OC)c(=O)[nH]1,19.4%
6,CCOc1ccc(NC(=O)COc2ccc3c(c2)CCC3)cc1OC,3.04%
7,N#Cc1c(-c2ccc(Cl)cc2)ccn2nc(C3CCCCC3)nc12,14.3%
8,CCCCCCCc1ccc(-c2ccc(O)cc2)nc1,16.9%
9,CCCCN(CCCC)C(=O)C[n+]1cccc(/C=N/O)c1.[Cl-],-9.09%
10,CCc1ccc(N2CC(C(=O)Nc3cccc(S(=O)(=O)N4CCCC4)c3)CC2=O)cc1 (centres unmarked),-15.9%
11,CC1CCN(C(=O)CNC(=O)CNS(=O)(=O)c2ccccc2)CC1,13.2%
12,CC(=O)N1CCCc2cc(S(=O)(=O)NC(C(=O)NC(C)c3ccccc3)C(C)C)ccc21 (centres unmarked),3.12%
13,COC(=O)c1cn(-c2ccccc2)nc1-c1cccnc1,-28.5%
14,CS(=O)(=O)c1cccc(NC(=O)c2ccc(Cl)c(Cl)c2)c1,-33.5%
15,CCn1c(CC(=O)Nc2ccc(C)c(Cl)c2)nnc1SCCOc1ccc(OC)cc1,2.62%
16,N#C/C(=C/c1ccc(N2CCCCC2)o1)C(=O)Nc1ccc(Cl)cc1,0.106%
17,CCOC(=O)c1ccc(N=Cc2c(O)n(-c3ccccc3F)c(=S)[nH]c2=O)cc1,8.22%
18,Cc1ccc(S(=O)(=O)N2CCN(C(=O)CC(C)C)CC2)cc1,0.37%
19,CCC(=O)Nc1nnc(/C=C/c2ccccc2)s1,1.74%

row,SMILES,"hERG current change (%, negative = inhibition) at 10uM"
1,Cc1ccc(CCN2C(Nc3ccccc3)=NC[C@@H]2C)cc1,-35.9%
2,CCN1CCN(c2ncnc3sc(C)c(-c4ccccc4)c23)CC1,-57.1%
3,COc1cccc(NC(=O)Nc2ccccc2Br)c1,19.6%
4,COc1ccccc1[C@@H]1C(c2ccc(F)cc2)=NN(c2ccccc2)[C@H]1C(=O)N1CCOC1=O,11.9%
5,COc1ccc(C(=O)N2CCCC(CCC(=O)NCc3ccccc3F)C2)c(OC)n1 (centres unmarked),13.8%
6,CSCCC(NC(=O)c1ccc([N+](=O)[O-])cc1Cl)C(=O)OCC(=O)N(C)C (centres unmarked),-2.34%
7,Cc1ccccc1OCCCC(=O)Nc1ccccc1C(F)(F)F,-3.72%
8,O=C(Nc1nc2ccc([N+](=O)[O-])cc2s1)c1ccc(S(=O)(=O)N2CCCc3ccccc32)cc1,-21.6%
9,C=CCn1c(SCC#N)nc2sc(CC)cc2c1=O,-16.5%
10,Cc1[nH]c2ccc(F)cc2c1CCN(Cc1cccnc1)C(=S)Nc1cccc(F)c1,-7.74%
11,O=[N+]([O-])c1cc([N+](=O)[O-])c(Oc2ccc(F)cc2F)cc1NN1CCCCC1,8.46%
12,CCOC(=O)c1cc(-c2ccccc2)n(CCC(=O)O)c1C,7.64%
13,CC(/C=C/C(=O)c1ccc(C)cc1)=C\c1ccccc1,2.2%
14,COc1ccc(OC)c(C(c2c(O)nc(SC)[nH]c2=O)c2c(O)nc(SC)[nH]c2=O)c1,14%
15,O=C(c1ccccc1CCc1ccccc1)N1CCCC1,9.12%
16,NS(=O)(=O)c1ccc(NC(=O)/C=C/c2cccs2)cc1,9.65%
17,Fc1ccc(C2CC(c3cccs3)=NN2C(=S)Nc2ccccc2)cc1 (centres unmarked),-34.4%
18,COc1cc(OC)c(NC(=O)c2cccc(F)c2)cc1Cl,-8.25%
